# Data: the supplement of paper PMC8728848
# The list shows a part of the results.
# Experiments:
# Assay in all cases: glycan array binding signal (z-score within array); higher = stronger binding
# Conditions in all cases: glycan notation: IUPAC condensed, linker removed
# Kdn(a2-3)Gal(b1-4)Glc = molecular target: Kdn(a2-3)Gal(b1-4)Glc
# Method in brief: (§1)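 Glycan array data came from 3228 arrays in the Consortium for Functional Glycomics database, and only arrays with an available protein sequence were kept. Glycan names were put into IUPAC-condensed notation, and columns mapping to the same glycan were averaged. The binding signal is a within-array Z-score, averaged across arrays of one protein sequence run at different concentrations or buffers and across linkers. A negative Z-score can be read as non-binding.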
# Kdn(a2-3)Gal(b1-4)GlcNAc = molecular target: Kdn(a2-3)Gal(b1-4)GlcNAc
# Method in brief: as §1
# [1] = molecular target: Kdn(a2-3)Gal(b1-4)[Fuc(a1-3)]GlcNAc
# Method in brief: as §1
# Kdn(a2-6)Gal(b1-4)GlcNAc = molecular target: Kdn(a2-6)Gal(b1-4)GlcNAc
# Method in brief: as §1
# [2] = molecular target: Man(a1-2)Man(a1-2)Man(a1-3)Man
# Method in brief: as §1
# [3] = molecular target: Man(a1-2)Man(a1-2)Man(a1-6)[Man(a1-3)]Man
# Method in brief: as §1
# Man(a1-2)Man(a1-3)Man = molecular target: Man(a1-2)Man(a1-3)Man
# Method in brief: as §1
# [4] = molecular target: Man(a1-2)Man(a1-3)[Man(a1-2)Man(a1-6)]Man
# Method in brief: as §1
# [5] = molecular target: Man(a1-2)Man(a1-3)[Man(a1-2)Man(a1-6)]Man(a1-6)[Man(a1-2)Man(a1-2)Man(a1-3)]Man
# Method in brief: as §1
# [6] = molecular target: Man(a1-2)Man(a1-3)[Man(a1-2)Man(a1-6)]Man(a1-6)[Man(a1-2)Man(a1-2)Man(a1-3)]Man(b1-4)GlcNAc(b1-4)GlcNAc
# Method in brief: as §1
# [7] = molecular target: Man(a1-2)Man(a1-3)[Man(a1-6)]Man(a1-6)[Man(a1-2)Man(a1-3)]Man(b1-4)GlcNAc(b1-4)GlcNAc
# Method in brief: as §1
# [8] = molecular target: Man(a1-2)Man(a1-6)[Man(a1-3)]Man(a1-6)[Man(a1-2)Man(a1-2)Man(a1-3)]Man
# Method in brief: as §1
# [9] = molecular target: Man(a1-2)Man(a1-6)[Man(a1-3)]Man(a1-6)[Man(a1-2)Man(a1-2)Man(a1-3)]Man(b1-4)GlcNAc(b1-4)GlcNAc
# Method in brief: as §1
# Man(a1-3)[Man(a1-6)]Man = molecular target: Man(a1-3)[Man(a1-6)]Man
# Method in brief: as §1
# [10] = molecular target: Man(a1-3)[Man(a1-6)]Man(a1-6)[Man(a1-2)Man(a1-3)]Man(b1-4)GlcNAc(b1-4)GlcNAc
# Method in brief: as §1
# [11] = molecular target: Man(a1-3)[Man(a1-6)]Man(a1-6)[Man(a1-3)]Man
# Method in brief: as §1
# [12] = molecular target: Man(a1-3)[Man(a1-6)]Man(a1-6)[Man(a1-3)]Man(b1-4)GlcNAc(b1-4)GlcNAc
# Method in brief: as §1
# [13] = molecular target: Man(a1-3)[Man(a1-6)]Man(b1-4)GlcNAc(b1-4)GlcNAc
# Method in brief: as §1
# [14] = molecular target: Man(a1-3)[Man(a1-6)]Man(b1-4)GlcNAc(b1-4)[Fuc(a1-6)]GlcNAc
# Method in brief: as §1
# Man(a1-6)Man = molecular target: Man(a1-6)Man
# Method in brief: as §1
# Man(b1-4)GlcNAc = molecular target: Man(b1-4)GlcNAc
# Method in brief: as §1
# MurNAc(b1-4)GlcNAc = molecular target: MurNAc(b1-4)GlcNAc
# Method in brief: as §1
# Neu5Ac(a2-3)Gal = molecular target: Neu5Ac(a2-3)Gal
# Method in brief: as §1
# [15] = molecular target: Neu5Ac(a2-3)Gal(b1-3)GalNAc
# Method in brief: as §1
# [16] = molecular target: Neu5Ac(a2-3)Gal(b1-3)GalNAc(b1-3)Gal(a1-4)Gal(b1-4)Glc
# Method in brief: as §1
# [17] = molecular target: Neu5Ac(a2-3)Gal(b1-3)GalNAc(b1-4)[Neu5Ac(a2-3)]Gal(b1-4)Glc
# Method in brief: as §1
# [18] = molecular target: Neu5Ac(a2-3)Gal(b1-3)GalNAc(b1-4)[Neu5Ac(a2-8)Neu5Ac(a2-3)]Gal(b1-4)Glc
# Method in brief: as §1
# [19] = molecular target: Neu5Ac(a2-3)Gal(b1-3)GalNAc6S
# Method in brief: as §1
# [20] = molecular target: Neu5Ac(a2-3)Gal(b1-3)GlcNAc
# Method in brief: as §1
# [21] = molecular target: Neu5Ac(a2-3)Gal(b1-3)GlcNAc(b1-2)Man
# Method in brief: as §1
# [22] = molecular target: Neu5Ac(a2-3)Gal(b1-3)GlcNAc(b1-2)Man(a1-3)[GlcNAc(b1-4)][Neu5Ac(a2-3)Gal(b1-3)GlcNAc(b1-2)Man(a1-6)]Man(b1-4)GlcNAc(b1-4)GlcNAc
# Method in brief: as §1
# [23] = molecular target: Neu5Ac(a2-3)Gal(b1-3)GlcNAc(b1-2)Man(a1-3)[Neu5Ac(a2-3)Gal(b1-3)GlcNAc(b1-2)Man(a1-6)]Man(b1-4)GlcNAc(b1-4)GlcNAc
# Method in brief: as §1
# [24] = molecular target: Neu5Ac(a2-3)Gal(b1-3)GlcNAc(b1-3)Gal(b1-3)GlcNAc
# Method in brief: as §1
# [25] = molecular target: Neu5Ac(a2-3)Gal(b1-3)GlcNAc(b1-3)Gal(b1-4)GlcNAc
# Method in brief: as §1
# [26] = molecular target: Neu5Ac(a2-3)Gal(b1-3)GlcNAc(b1-3)GalNAc
# Method in brief: as §1
# [27] = molecular target: Neu5Ac(a2-3)Gal(b1-3)GlcNAc(b1-4)Gal(b1-4)Glc
# Method in brief: as §1
# [28] = molecular target: Neu5Ac(a2-3)Gal(b1-3)GlcNAc(b1-6)GalNAc
# Method in brief: as §1
# [29] = molecular target: Neu5Ac(a2-3)Gal(b1-3)GlcNAc6S
# Method in brief: as §1
binder,measurement,setting,value
Cohesin-hDECTIN-1 (Homo sapiens) (protein) LDITSHHHHHHDDLDAVRIKVDTVNAKPGDTVRIPVRFSGIPSKGIANCDFVYSYDPNVLEIIEIEPGDIIVDPNPDKSFDTAVYPDRKIIVFLFAEDSGTGAYAITKDGVFATIVAKVKEGAPNGLSVIKFVEVGGFANNDLVEQKTQFFDGGVNVGDTTEPATPTTPVTTPTTTDDLDAASSSPCPPNWIIYEKSCYLFSMSLNSWDGSKRQCWQLGSNLLKIDSSNELGFIVKQVSSQPDNSFWIGLSRPQTEVPWLWEDGSTFSSNLFQIRTTATQENPSPNCVWIHVSVIYDQLCSVPSYSICEKKFM,glycan array binding signal (z-score),Kdn(a2-3)Gal(b1-4)Glc,-0.637
same,glycan array binding signal (z-score),Kdn(a2-3)Gal(b1-4)GlcNAc,-0.545
same,glycan array binding signal (z-score),[1],-0.474
same,glycan array binding signal (z-score),Kdn(a2-6)Gal(b1-4)GlcNAc,-0.471
same,glycan array binding signal (z-score),[2],0.67
same,glycan array binding signal (z-score),[3],-0.33
same,glycan array binding signal (z-score),Man(a1-2)Man(a1-3)Man,-0.327
same,glycan array binding signal (z-score),[4],-0.432
same,glycan array binding signal (z-score),[5],-0.463
same,glycan array binding signal (z-score),[6],-0.206
same,glycan array binding signal (z-score),[7],-0.55
same,glycan array binding signal (z-score),[8],0.045
same,glycan array binding signal (z-score),[9],-0.557
same,glycan array binding signal (z-score),Man(a1-3)[Man(a1-6)]Man,-0.41
same,glycan array binding signal (z-score),[10],-0.362
same,glycan array binding signal (z-score),[11],-0.272
same,glycan array binding signal (z-score),[12],-0.562
same,glycan array binding signal (z-score),[13],-0.44
same,glycan array binding signal (z-score),[14],-0.534
same,glycan array binding signal (z-score),Man(a1-6)Man,0.496
same,glycan array binding signal (z-score),Man(b1-4)GlcNAc,-0.36
same,glycan array binding signal (z-score),MurNAc(b1-4)GlcNAc,-0.397
same,glycan array binding signal (z-score),Neu5Ac(a2-3)Gal,-0.403
same,glycan array binding signal (z-score),[15],-0.482
same,glycan array binding signal (z-score),[16],-0.037
same,glycan array binding signal (z-score),[17],-0.447
same,glycan array binding signal (z-score),[18],-0.355
same,glycan array binding signal (z-score),[19],0.081
same,glycan array binding signal (z-score),[20],-0.404
same,glycan array binding signal (z-score),[21],-0.06
same,glycan array binding signal (z-score),[22],-0.441
same,glycan array binding signal (z-score),[23],-0.206
same,glycan array binding signal (z-score),[24],-0.252
same,glycan array binding signal (z-score),[25],-0.448
same,glycan array binding signal (z-score),[26],-0.224
same,glycan array binding signal (z-score),[27],-0.22
same,glycan array binding signal (z-score),[28],1.9
same,glycan array binding signal (z-score),[29],-0.326
